In the supplement of paper PMC3334620:
Whole data set: some 33,000 sequences, median “E-score (-0.5 to 0.5)” near -0.021, cut for the highest 2% near 0.32. Some of the results follow.

Target: T1, Zap1 (UniProt P47043)
T1 sequence: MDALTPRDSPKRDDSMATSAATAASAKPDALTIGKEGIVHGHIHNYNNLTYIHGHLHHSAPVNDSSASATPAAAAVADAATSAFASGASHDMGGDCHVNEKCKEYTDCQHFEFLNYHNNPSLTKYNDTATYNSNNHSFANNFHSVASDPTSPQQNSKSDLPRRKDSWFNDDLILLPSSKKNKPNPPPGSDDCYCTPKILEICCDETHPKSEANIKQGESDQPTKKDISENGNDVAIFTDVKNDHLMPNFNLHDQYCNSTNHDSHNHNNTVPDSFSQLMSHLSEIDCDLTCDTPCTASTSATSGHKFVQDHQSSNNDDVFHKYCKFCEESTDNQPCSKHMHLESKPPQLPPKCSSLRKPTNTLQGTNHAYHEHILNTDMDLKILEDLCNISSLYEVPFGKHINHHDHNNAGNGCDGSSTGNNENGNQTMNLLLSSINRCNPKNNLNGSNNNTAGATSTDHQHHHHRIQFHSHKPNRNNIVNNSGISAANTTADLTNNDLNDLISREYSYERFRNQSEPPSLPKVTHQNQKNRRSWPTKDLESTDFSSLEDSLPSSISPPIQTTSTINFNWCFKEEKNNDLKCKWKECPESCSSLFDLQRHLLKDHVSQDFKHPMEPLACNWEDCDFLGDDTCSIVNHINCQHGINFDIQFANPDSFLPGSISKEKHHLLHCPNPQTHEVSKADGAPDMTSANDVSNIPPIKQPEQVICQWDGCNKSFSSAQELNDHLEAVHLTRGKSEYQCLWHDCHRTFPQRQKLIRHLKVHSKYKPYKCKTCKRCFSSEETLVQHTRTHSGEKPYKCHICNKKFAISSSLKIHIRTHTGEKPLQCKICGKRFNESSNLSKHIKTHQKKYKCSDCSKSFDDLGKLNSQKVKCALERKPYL
Experiment: PBM E-score (8-mer binding enrichment) (E-score (-0.5 to 0.5)); higher = stronger / more preferred TF binding; most listed sequences are background and not binding sites
Conditions: protein concentration: 200 nM; construct: GST-full length
How it was run: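 Universal all-10-mer Agilent arrays, double-stranded by primer extension on fresh or once-stripped slides, were probed with about 100-200 nM GST-tagged yeast transcription factors made by PURExpress. Fluorescent anti-GST detected bound protein, and masliner normalised the scans. E-scores from the Universal PBM Analysis Suite were given to each ungapped eight-base word pooled with its reverse complement.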

Sequence	PBM E-score
GCCGGGAC	-0.199
GACGCCGA	0.022
AGGAGCGG	-0.305
AAGGCCAC	0.0887
ATGCCACA	-0.111
GGAGGTAC	0.13
CCCCATTC	-0.0769
GAAACTGC	-0.183
TAATCATA	0.217
CGAGTTCC	0.00468
GCCCGCTA	-0.287
CGAATTAC	-0.092
TGATGACA	-0.0144
TCCCGCGA	0.00977
GAGATATC	-0.0507
ACTTATGC	0.00488
GGCGAACC	-0.135
CAAAACTC	0.0001
CGCCGTAG	-0.198
TTAACAAA	0.124
ACCAATAC	0.146
AGAGAGCA	-0.215
CGATACAA	0.0578
CACAAATA	0.233
GCGTCGCA	-0.26

Sequence	PBM E-score
AGGGTGCG	0.0755
CGGGTCCA	-0.035
CCGCGCGG	0.332
ACAATACA	0.0203
AGCCAACG	-0.0542
GACATATC	0.00746
AGCGAACT	-0.102
CCTCGAGC	0.0178
CAGAACAA	0.298
CCAGGGCA	-0.123
CCCAGGAG	0.012
ACGGGATA	0.0668
AGTACTTA	0.0107
ATAAGGTC	0.184
CCCTCGAA	-0.0507
GCAACTTA	0.104
GTGCTAAA	-0.0213
ACCACTAC	0.182
CATAGCCG	-0.0532
AGTTCGAC	-0.0259
CGTGCACA	-0.136
AATGACCA	0.334
TCGGAAAA	0.0133
GCTCCGCA	-0.272
ATGCATTC	-0.0449

Sequence	PBM E-score
CCATACCG	-0.0734
ATAGGGCA	-0.0304
AACAGCAT	-0.0619
GCATGACC	0.234
GACCGTCA	0.062
TATGAATA	0.0234
AGTACCTA	0.299
CACTTTCA	0.109
AGTTAACA	0.117
GTAAACAC	0.0841
AGCCTTGG	-0.208
CAACCAGA	0.0688
CCCAGAAG	0.00556
AGAATACT	0.0414
AACTAGTA	0.145
AAGTGTCC	-0.108
CAACTAAA	0.106
AACGAGTT	-0.11
GCCATCAC	-0.0497
CCCATTGA	0.014
GCACTCTA	0.159
ATGTATGA	0.118
CGAGGCTA	0.178
CAAGTAAC	0.284
GCAAACAA	0.142

Sequence	PBM E-score
AGTCAAAC	-0.0511
CTCGTTAA	0.00164
AATTCGGA	0.0199
CAACGTTG	-0.00367
GGCGTCCA	-0.125
ATCTTTGC	0.0208
ACGTTTAA	0.1
GCTTTACA	-0.0896
ACATAGGG	0.00531
CGGATCAG	-0.141
GATAAACA	0.0546
ACGGGTAT	0.312
CAACATCG	-0.0913
GGCAACTA	-0.0638
CAGGCGCC	-0.188
AAGCGCAC	-0.156
GCCATAAC	0.12
CTTGATAC	-0.00663
GAGCACTC	-0.13
GGACACCA	0.0222
ATGTTAAG	-0.0536
GAAATCCC	0.0594
ACGAGCTA	-0.0843
GGTCTGGA	-0.134
ATCGCCAC	0.093

Sequence	PBM E-score
AGGATTAC	0.0553
CTTCCACA	-0.0978
CCTAAAAC	0.181
TACTCATA	-0.113
AACGAAAC	0.117
GGCGTCAC	-0.129
GGGCCCTA	0.0474
AAACTTTG	0.112
AACATCTC	-0.131
GCTCCAAC	-0.045
GTAACCTA	0.458
ACGATCAG	0.044
CTGAGCCA	-0.0359
TGAAAGCA	0.0751
TACAGGTA	0.213
ACGCTCCT	-0.261
CTGTCTCC	-0.253
AAATCACT	0.0213
TGCTGAAA	-0.0931
AGCGCATC	-0.3
CATCGCGG	0.147
ATGCCATG	-0.107
GGCGCCCC	-0.15
CGAGACGA	-0.26
ATTAGGCA	-0.131

Sequence	PBM E-score
AGGAATAT	-0.00164
CCTATCAC	0.0121
GCTTGCAC	-0.181
AAACCGGC	0.185
GGCCACCC	0.241
CCGGCTAG	-0.261
CAGGTTGC	0.0972
GTGTATTA	0.248
GGGAGAAA	0.0239
AGTGCACT	0.0393
ACTGAACT	-0.00112
AGGCTGCA	-0.0385
GACCTATA	0.295
CGCAGCCC	-0.0497
GGCCGACA	-0.00342
GGACAGCC	-0.0735
AGCGGCCG	0.0255
CGGCTTCC	-0.239
AACCCTCA	0.383
GCGCTAGC	-0.275
CACATTGG	-0.00859
CGGCTGAA	-0.0251
ATCAATCA	0.203
CCGTGTGC	-0.204
ATCTGGAG	-0.00727

Sequence	PBM E-score
TAGGTTGA	0.101
CCTTCGGC	-0.0312
GCAAGACC	0.0765
CGTCCTAC	-0.193
TCCTTACA	0.112
AGTTACAA	0.193
AGACCAGG	-0.029
ATAGTAAT	0.149
CCGTACAC	0.141
CAAGGGGG	-0.123
ATCTGGAA	-0.00838
GCCACGCA	-0.113
AAGTGTGA	-0.239
AATGCTGC	-0.0899
CTGTACCA	-0.125
CACGCGTA	0.0393
ATGACGTG	-0.161
GACCACGA	0.115
ACGAAGCC	-0.0778
TCTATGCA	-0.0844
ACACTAAG	0.102
GTGCTAGA	-0.205
